Experimental data as given in paper PMC12040169 (PLOS Biology, 2025).
Some of the results follow.

What follows are compounds tested on T1, C. trachomatis L2/434/Bu expressing GFP (CTL2-GFP). Details: total inclusion area; 28.5 h, 10 µM; inhibitor.
T1 construct: L2/434/Bu GFP intracellular growth in HeLa cells
Design: species or system HeLa; C. trachomatis total inclusion area by high-content imaging, normalised to DMSO
How it was run: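 Following bulk GFP and resorufin fluorescence reads, infected cells were fixed, Hoechst-stained and imaged on a high-content platform. Inclusion total area and number per well served as growth proxies; nuclei counts indicated host viability. MICs were derived as for the fluorescence assay.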

| Compound | % of control remaining |
| --- | --- |
| COC(=O)C1(Cc2ccccc2-c2ccncc2)CCNC1 (stereo not drawn) [CBK281435] | 104.453 |
| CC(C)(C)COC(=O)N1CCC(N2CCOc3ccc(-c4ccc(S(C)(=O)=O)cc4)cc3C2)CC1 [CBK169264] | 79.2717 |
| NS(=O)(=O)c1ccc2c(c1)N(Cc1nc(-c3ccco3)no1)CC2 [CBK304291] | 109.332 |
| CCCSc1nnc(-c2c(Cl)c(CC)nn2C)s1 [CBK026135] | 92.6102 |
| CCCCCCOC(=O)c1ccc2c(c1)C(=O)N(c1cccc(N)c1)C2=O [CBK157034] | 103.982 |
| COCCN1CCn2c(nc3cc(NC(=O)c4cccc([N+](=O)[O-])c4)ccc32)C1 [CBK267965] | 96.3459 |
| O=C(Nc1cccc(N2CCCC2=O)c1)c1ccccc1Nc1ccccc1 [CBK297729] | 93.7908 |
| CC(=O)c1ccc(NC(=O)CSc2nc(O)cc(-c3ccccc3)n2)cc1 [CBK269048] | 81.5975 |
| Cn1c(=O)c2[nH]c(-c3ccc(OCC(=O)NCCc4ccccc4)cc3)nc2n(C)c1=O [CBK269092] | 100.227 |
| COc1ccc(C2NC(C(=O)O)CS2)cc1CN1C[C@@H]2C[C@H](C1)c1cccc(=O)n1C2 (stereo partly drawn) [CBK020798] | 105.955 |
| CN1CCC(C(=O)NC(=O)Nc2ccccc2F)CC1 [CBK034827] | 91.3707 |
| O=C1c2ccccc2NC(c2cccc(O)c2)N1O (stereo not drawn) [CBK288426] | 89.8053 |
| CN(C)c1ccc(C(=O)N2CCC(c3cc4ncccc4[nH]3)CC2)cc1 [CBK284459] | 110.871 |
| CCN(C(C)COC)S(=O)(=O)c1ccc(-n2ncc(Cl)c(Cl)c2=O)cc1 (stereo not drawn) [CBK305662] | 1.307 |
| O=C(Oc1c(Cl)cc(Cl)c2cccnc12)c1cc(S(=O)(=O)N2CCCCC2)ccc1Cl [CBK264518] | 96.3092 |
| S=C1NCN(Cc2ccccc2)CN1c1ccccc1 [CBK263536] | 101.237 |
| O=C(Nc1cccc(Cl)c1)C1CCC(C(=O)Nc2cccc(Cl)c2)CC1 (stereo not drawn) [CBK269136] | 83.5848 |
| CC(C)Cc1ccc(C(C)c2nc3ccccc3[nH]2)cc1 (stereo not drawn) [CBK261484] | 90.2618 |
| CN1C(=O)CC2(C1=O)C(=O)N(CC(=O)c1ccccc1)c1ccc(F)cc12 (stereo not drawn) [CBK075420] | 114.045 |
| O=C(c1ccccc1NS(=O)(=O)c1cccc2cccnc12)N1CCOCC1 [CBK043338] | 84.9538 |
| CCOC(=O)CC1C(=O)NCCN1Cc1cccc(C)n1 (stereo not drawn) [CBK269965] | 97.559 |

| Compound | % of control remaining |
| --- | --- |
| O=C(CN1CCCC2(CCN(C(=O)c3cc(F)c(F)cc3F)C2)C1)Nc1ccc(F)c(Cl)c1 (stereo not drawn) [CBK132008] | 64.4211 |
| COc1ccc2[nH]cc(CC(=O)N3CCCC4(CCN(C(=O)c5cc(F)c(F)cc5F)C4)C3)c2c1 (stereo not drawn) [CBK131562] | 118.357 |
| C=CCNC(=O)C1CN(C)CC12CCc1ccccc1C(=O)N2 (stereo not drawn) [CBK282401] | 105.115 |
| O=C(CSc1nnc2ccc(-c3ccccc3)nn12)NCc1ccccc1 [CBK287677] | 7.966 |
| COc1ccc(C(Nc2ccnc(OC)c2C#N)[C@H]2C[C@@H](O)C2)cn1 (stereo partly drawn) [CBK306980] | 51.5387 |
| CCc1[nH]c2ccc(C(=O)NC3CCCOC3)cc2c1C (stereo not drawn) [CBK283247] | 109.361 |
| O=C(O)CC(NCc1ccccc1)C(=O)Nc1cccc(F)c1 (stereo not drawn) [CBK266956] | 104.544 |
| CCC(C)(C)c1ccc(S(=O)(=O)N2CCCN(Cc3cccc4c3OCO4)CC2)cc1 [CBK062872] | 96.2382 |
| Cc1ccc2c(c1)C1(CC(=O)N(CC(=O)O)C1=O)C(=O)N2C (stereo not drawn) [CBK076104] | 62.1116 |
| Cn1nc(C(=O)N2Cc3cnn(Cc4ccc(F)cc4)c3C2)ccc1=O [CBK306855] | 45.9897 |
| O=C(O)c1ccc(NS(=O)(=O)c2cc(C(=O)O)ccc2Br)cc1 [CBK113164] | 66.7762 |
| CCOC(=O)c1cnc2ccc(C(CCOCc3ccccc3)OCc3ccccc3)cc2c1O (stereo not drawn) [CBK018405] | 28.5793 |
| CC(=O)c1ccc(NC(=O)CSc2nnc(-c3ccc4ccccc4n3)s2)cc1 [CBK269205] | 73.8926 |
| CCCn1cc(CN2CCC(O)(c3ccc(C)cc3)CC2)cn1 [CBK282737] | 122.665 |
| O=C(c1ccc(Oc2ccccc2)cc1)N1CCC2(CCN(Cc3ccccc3)C2)C1 (stereo not drawn) [CBK136833] | 90.2913 |
| Cc1nn2c(=O)[nH]ncc2c1-c1ccccc1C(=O)N(C(C)C)C(C)C [CBK307043] | 77.9126 |
| CCC(=O)N1CCN(c2nc3ccc(OC)cc3s2)CC1 [CBK287721] | 75.541 |
| O=C(Cc1c[nH]c(=O)[nH]c1=O)Nc1ncc(Cc2ccc(F)cc2)s1 [CBK285674] | 97.2285 |
| C=C(C)CN1CCN(C(C(=O)O)c2c[nH]c3cc(F)ccc23)CC1 (stereo not drawn) [CBK286835] | 132.967 |
| O=C(NC1Cc2ccccc2C1)c1ccc2ccccc2n1 [CBK200355] | 106.159 |
| Cc1ccc(C2(CNC(=O)CCc3ccncc3)CCOCC2)cc1 [CBK281574] | 111.02 |

| Compound | % of control remaining |
| --- | --- |
| Cc1cc(C)c(NC(N)=O)c(C)c1 [CBK086399] | 67.0511 |
| O=C(O)c1ccc(CSc2nnc(-c3ccncc3)o2)cc1 [CBK266352] | 125.895 |
| Cc1cc(CN2CCN(CCc3ccccc3)CC2)no1 [CBK126426] | 111.991 |
| O=C(C1CCCC1)N1CC(n2nc(-c3cccs3)ccc2=O)C1 [CBK283345] | 94.5781 |
| Cc1ccc(C(=O)O)cc1NS(=O)(=O)c1ccc2c(c1)OCCO2 [CBK297497] | 97.4631 |
| O=C(NCc1c(Cl)cccc1Cl)N1CCCCC1CO (stereo not drawn) [CBK156184] | 94.4595 |
| Cc1nc2ncnn2c(C)c1CCC(=O)OCc1ccc(C#N)cc1 [CBK305838] | 42.4229 |
| O=[N+]([O-])c1cc(S(=O)(=O)N2CCCCCC2)ccc1NCc1ccccc1 [CBK262804] | 91.9262 |
| O=C(c1cccs1)N1CCC(n2c(=O)oc3ccccc32)CC1 [CBK284347] | 92.5344 |
| CCCc1nc(NC(c2cccc(C)n2)C2CC2)c2cnn(C)c2n1 (stereo not drawn) [CBK306795] | 100.209 |
| Cc1[nH]c2ccccc2c1/C=N/c1ccc(S(N)(=O)=O)cc1 [CBK261352] | 56.5463 |
| Cc1cccc(-c2csc3c(=O)[nH]c(N4CCC(C(=O)NCCN5CCOCC5)CC4)nc23)c1 [CBK215640] | 117.942 |
| Cc1cccc2c1[nH]c1nc(N/N=C\c3ccc(-c4cccc([N+](=O)[O-])c4)o3)nnc12 [CBK262373] | 104.931 |
| C[C@H]1CN(C(=O)c2cc(C3CC3)no2)[C@@H](C)CN1Cc1ccco1 [CBK281736] | 104.735 |
| CN1CCN(CCC(=O)N/N=C/c2cccc(Br)c2)CC1 [CBK261496] | 106.394 |
| CCOC(=O)c1sc(Nc2nc(C)cc(OC)n2)nc1C [CBK264822] | 77.7242 |
| Cc1csc2c(C3CCN(C(=O)c4cccnc4)CC3)nc(C)n12 [CBK285242] | 78.7064 |
| CC(c1cccs1)N(C)C(=O)NC1CCCc2c1cnn2CCO (stereo not drawn) [CBK306289] | 24.574 |
| Cc1cc(C)c(C)c(OCCCNC(=O)Cc2c(C)noc2C)c1 [CBK281506] | 117.893 |
| COc1cc(CN2CCN(C3CCCCC3)CC2)cc(OC)c1OC [CBK263407] | 110.072 |
| CCOC(=O)c1ccc(NC(=O)C(C)Oc2ccccc2C)cc1 (stereo not drawn) [CBK268660] | 119.681 |

| Compound | % of control remaining |
| --- | --- |
| O=C(CSc1ccccc1)NCc1ccncc1 [CBK058023] | 65.7484 |
| CC1CCC(C(N)=O)CN1C(=O)c1cncc(Br)c1 (stereo not drawn) [CBK305773] | 39.3309 |
| CCOC(=O)c1cnn(C2CCCN(c3ccc(C#N)nc3)C2)c1 (stereo not drawn) [CBK306458] | 67.3498 |
| COC(=O)C1CC(O)CC1C(=O)N1CCCC1 (stereo not drawn) [CBK011029] | 108.834 |
| O=C(O)CCc1nc2ccccc2s1 [CBK264071] | 103.168 |
| Cc1nnc(NS(=O)(=O)c2ccc(Br)cc2)s1 [CBK068266] | 85.366 |
| CN(C)CCN1CCN(c2nc(-c3occc3C=O)cnc2N)CC1 [CBK063917] | 78.4541 |
| O=C(/C=C/c1cccc([N+](=O)[O-])c1)Nc1ccc(O)cc1C(=O)O [CBK263615] | 111.333 |
| Cc1ncccc1COC(=O)N1c2ccc(F)cc2CCC1C (stereo not drawn) [CBK200139] | 111.052 |
| COc1nccnc1-c1ccccc1Cl [CBK107000] | 101.91 |
| C=CCNC(=O)c1ccccc1NC(=O)Cc1ccc(Cl)cc1 [CBK270086] | 68.5349 |
| CCC(C)[C@H](NC(=O)N1CCN(C(=O)c2cc3ccccc3[nH]2)CC1)C(=O)O (stereo partly drawn) [CBK286725] | 102.009 |
| COc1ccc(-c2nccnc2N2CCN(C)CC2)cc1 [CBK038012] | 75.1398 |
| CC1=C(CCN2CCCC(CO)C2)C(C)(C)CCC1 (stereo not drawn) [CBK020827] | 49.0836 |
| Cc1cccc(-c2noc([C@@H]3Cc4[nH]cnc4CN3C(=O)CC(C)(C)CC(=O)O)n2)c1 [CBK288961] | 99.5972 |
| FC(F)(F)c1ccnc(Sc2nccs2)n1 [CBK093771] | 91.8556 |
| CC(C)Nc1cncc(Sc2ccccc2O)n1 [CBK091438] | 81.2123 |
| COc1ccc(CCNS(=O)(=O)N(C)C)cc1 [CBK264348] | 125.815 |
